Assay results taken from the RNAGym collection of RNA variant scans (doi:10.1093/nar/gkz1192).
Read counts are not given, so values of variants with three or more changes are uncertain.

B1: CPEB3 Ribozyme (parent)
chain: UAACAGGGGGCCACAGCAGAAGCGUUCACGUCGCAGCCCCUGUCAGAUUCUGGUGAAUCUGCGAAUUCUGCUGUAUAUCUC

Variants of: B1
Assay: self-cleavage, relative activity (ratio to wild type); higher = more cleavage; in vitro, sequencing
Summary of the method: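 Relative activity was defined as the cleaved/total read fraction for a variant divided by the same fraction for the unmutated ribozyme. CPEB3 self-cleaving ribozyme libraries were made by rounds of error-prone PCR, barcoded, and transcribed in vitro with T7 RNA polymerase for 5 hours at 37°C, and cleavage ran through transcription plus a 15 min DNase I step before EDTA. Illumina sequencing of template-switched reverse transcripts gave the reads, and DNA sequencing mapped the barcodes. Averages come from three batches, using variants with at least 5 reads.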

For A3U U31G A45U A64G, which self-cleavage is on record?
Its self-cleavage is 0.23.

Which self-cleavage does the source give for A3U U41A G46U U58A here?
Its self-cleavage is 0.16.

Which self-cleavage does the source give for A3U U41A G55A here?
Its self-cleavage is 0.14.

With A3U U41A U69C as the variant, how does the self-cleavage read?
The self-cleavage was 0.07.

For A3U U41C A45G U58C U80C, which self-cleavage is on record?
Its self-cleavage is 0.45.

For A3U U41C A64U, which self-cleavage is on record?
The self-cleavage was 0.27.

With A3U U41C U49C A64U as the variant, how does the self-cleavage read?
The self-cleavage was 0.12.

With A3U U41C U54G as the variant, how does the self-cleavage read?
The self-cleavage was 0.83.

With A3U U41C U69A as the variant, how does the self-cleavage read?
The self-cleavage was 0.57.

Which self-cleavage does the source give for A3U U43A G46C A57G here?
The self-cleavage was 0.47.

For A3U U43A U74C, which self-cleavage is on record?
Its self-cleavage is 1.25.

For A3U U43C A47G U48A U78C, which self-cleavage is on record?
Its self-cleavage is 0.18.

For A3U U43C G53A, which self-cleavage is on record?
Its self-cleavage is 0.98.

With A3U U43C U74G U78A as the variant, how does the self-cleavage read?
The self-cleavage was 1.03.

For A3U U48A A65G U69G U72A, which self-cleavage is on record?
The self-cleavage was 0.08.

With A3U U48C A64G U72A as the variant, how does the self-cleavage read?
The self-cleavage was 0.27.

Which self-cleavage does the source give for A3U U48C G53U U54A G61C here?
The self-cleavage was 0.43.

For A3U U48C U49C U74C, which self-cleavage is on record?
The self-cleavage was 0.32.

With A3U U49C U54C as the variant, how does the self-cleavage read?
The self-cleavage was 0.51.

For A3U U49C U72A, which self-cleavage is on record?
The self-cleavage was 0.23.

Which self-cleavage does the source give for A3U U51A A64G here?
Its self-cleavage is 0.96.

Which self-cleavage does the source give for A3U U51A U67C U72C A75G here?
The self-cleavage was 0.4.

Which self-cleavage does the source give for A3U U51C C79U here?
The self-cleavage was 1.22.

Which self-cleavage does the source give for A3U U51C G53A here?
The self-cleavage was 1.17.

With A3U U54A A56G as the variant, how does the self-cleavage read?
Its self-cleavage is 0.71.

For A3U U54A G63C U78A, which self-cleavage is on record?
Its self-cleavage is 1.2.

With A3U U54A U76C as the variant, how does the self-cleavage read?
The self-cleavage was 1.21.

Which self-cleavage does the source give for A3U U54A U78A here?
The self-cleavage was 1.12.

Which self-cleavage does the source give for A3U U58A A65U U74C here?
Its self-cleavage is 0.15.

For A3U U58C A64G, which self-cleavage is on record?
Its self-cleavage is 0.56.

With A3U U60A A64G as the variant, how does the self-cleavage read?
The self-cleavage was 0.67.

For A3U U60A U80C, which self-cleavage is on record?
Its self-cleavage is 0.54.

With A3U U60C A64G as the variant, how does the self-cleavage read?
Its self-cleavage is 0.29.

For A3U U60C A64U, which self-cleavage is on record?
Its self-cleavage is 0.16.

With A3U U60C C62U U72A A77G as the variant, how does the self-cleavage read?
The self-cleavage was 0.29.

With A3U U60C U69C U74C as the variant, how does the self-cleavage read?
The self-cleavage was 0.29.

Which self-cleavage does the source give for A3U U66C U69C here?
Its self-cleavage is 0.19.

Which self-cleavage does the source give for A3U U67A U69C U72C here?
The self-cleavage was 0.4.

For A3U U67C U78C, which self-cleavage is on record?
Its self-cleavage is 0.33.

Which self-cleavage does the source give for A3U U69A A77G here?
Its self-cleavage is 1.06.

With A3U U69C U76A as the variant, how does the self-cleavage read?
Its self-cleavage is 0.83.

For C4A A5G U43C U54G A57G U80C, which self-cleavage is on record?
Its self-cleavage is 0.1.

For C4A A13U U43C U58C A64G A65G A77G, which self-cleavage is on record?
Its self-cleavage is 0.18.

With C4A A15G A47U U60C U76A as the variant, how does the self-cleavage read?
Its self-cleavage is 0.09.

Which self-cleavage does the source give for C4A A15U C29U C40G U41C U72C A75U here?
The self-cleavage was 0.16.

Which self-cleavage does the source give for C4A A18G G55C A64G U74A here?
The self-cleavage was 0.97.

For C4A A18G U26C U43C G55A U58A, which self-cleavage is on record?
Its self-cleavage is 0.16.

Which self-cleavage does the source give for C4A A18G U58C U80C here?
Its self-cleavage is 0.3.

With C4A A20G A56G U69C U72C U78C as the variant, how does the self-cleavage read?
Its self-cleavage is 0.18.

For C4A A20G C32U U43C U49A U80C, which self-cleavage is on record?
The self-cleavage was 0.29.

For C4A A20U U51C A56G, which self-cleavage is on record?
Its self-cleavage is 0.32.

Which self-cleavage does the source give for C4A A21C U43C U72G G73A U78C here?
The self-cleavage was 0.14.

Which self-cleavage does the source give for C4A A21G A47G A64U here?
Its self-cleavage is 0.39.

With C4A A21G G24A U26C U69A U72G as the variant, how does the self-cleavage read?
The self-cleavage was 0.07.

Which self-cleavage does the source give for C4A A21G G73A here?
The self-cleavage was 1.12.

With C4A A35G C38U G53A U74A as the variant, how does the self-cleavage read?
The self-cleavage was 1.31.

With C4A A57C U78C as the variant, how does the self-cleavage read?
The self-cleavage was 0.8.

For C4A A65G U80C, which self-cleavage is on record?
The self-cleavage was 0.97.

For C4A C12G U41A A45G, which self-cleavage is on record?
Its self-cleavage is 0.15.

For C4A C12U A13U U25C G42A U72C, which self-cleavage is on record?
Its self-cleavage is 0.07.

For C4A C12U U76C U80A, which self-cleavage is on record?
Its self-cleavage is 1.27.

With C4A C27G U43A U58C as the variant, how does the self-cleavage read?
Its self-cleavage is 0.3.

Which self-cleavage does the source give for C4A C27U U72G U80C here?
The self-cleavage was 0.42.

With C4A C37A U41C U51C A57C U72A as the variant, how does the self-cleavage read?
The self-cleavage was 0.09.

With C4A C40U U74C as the variant, how does the self-cleavage read?
The self-cleavage was 1.14.

Which self-cleavage does the source give for C4A G8A A45U A64G here?
The self-cleavage was 0.25.

Which self-cleavage does the source give for C4A G8C G10A C34U C59A U78C here?
Its self-cleavage is 0.05.

Which self-cleavage does the source give for C4A G33A A35U C37A U58G U66C here?
The self-cleavage was 0.14.

Which self-cleavage does the source give for C4A G42A U78A here?
Its self-cleavage is 0.2.

With C4A U26A A47C A75G as the variant, how does the self-cleavage read?
Its self-cleavage is 0.13.

Which self-cleavage does the source give for C4A U26A G36A U43C U69A here?
Its self-cleavage is 0.08.

With C4A U26C G33U U41A A57G U78C as the variant, how does the self-cleavage read?
Its self-cleavage is 0.06.

For C4A U26C U43C G55A U69A, which self-cleavage is on record?
The self-cleavage was 0.24.

Which self-cleavage does the source give for C4A U31A U66C here?
Its self-cleavage is 0.36.

For C4A U31C U43C, which self-cleavage is on record?
The self-cleavage was 0.38.

Which self-cleavage does the source give for C4A U41C U48C U60A U72A here?
Its self-cleavage is 0.16.

Which self-cleavage does the source give for C4A U41C U54C here?
The self-cleavage was 1.11.

With C4A U49C C62A G63C as the variant, how does the self-cleavage read?
Its self-cleavage is 0.15.

Which self-cleavage does the source give for C4A U58C U78G here?
The self-cleavage was 1.05.

Which self-cleavage does the source give for C4G A5G A21G A28G U78A here?
The self-cleavage was 0.66.

Which self-cleavage does the source give for C4G A5G A21G C29A U78C here?
Its self-cleavage is 0.23.

Which self-cleavage does the source give for C4G A5G G10A U80G here?
Its self-cleavage is 0.28.

With C4G A5G U48C U60C U67C as the variant, how does the self-cleavage read?
The self-cleavage was 0.19.

Which self-cleavage does the source give for C4G A5G U58C here?
The self-cleavage was 0.58.
